Reference: article PMC12292926
These are yes or no findings as the source states them, for the method shown. Binding seen in cells or lysates may run through a third protein. Some results given as binding are weak or reduced against the parent protein; the word gives no strength. For part of these data: Where a sequence is shown, tags or fusion partners need not be part of it.

Chains of the proteins cited; added tags and fusions are not shown. Lines headed by an entry give the natural chain unless they say otherwise; changes in a name come on top. A line that says so, or that is headed by a name, gives the form on record, which may keep a tag or linker. Residues count along the entry.
UniProt Q9H4L4, residues 303-574: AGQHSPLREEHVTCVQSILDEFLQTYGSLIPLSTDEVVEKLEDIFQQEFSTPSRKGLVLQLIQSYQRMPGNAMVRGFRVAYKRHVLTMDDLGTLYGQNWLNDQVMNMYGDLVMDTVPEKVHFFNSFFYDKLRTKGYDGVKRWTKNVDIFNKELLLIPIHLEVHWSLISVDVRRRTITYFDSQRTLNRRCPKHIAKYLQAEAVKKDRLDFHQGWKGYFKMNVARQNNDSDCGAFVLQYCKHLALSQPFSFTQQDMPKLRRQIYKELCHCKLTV
UniProt Q8IZL8: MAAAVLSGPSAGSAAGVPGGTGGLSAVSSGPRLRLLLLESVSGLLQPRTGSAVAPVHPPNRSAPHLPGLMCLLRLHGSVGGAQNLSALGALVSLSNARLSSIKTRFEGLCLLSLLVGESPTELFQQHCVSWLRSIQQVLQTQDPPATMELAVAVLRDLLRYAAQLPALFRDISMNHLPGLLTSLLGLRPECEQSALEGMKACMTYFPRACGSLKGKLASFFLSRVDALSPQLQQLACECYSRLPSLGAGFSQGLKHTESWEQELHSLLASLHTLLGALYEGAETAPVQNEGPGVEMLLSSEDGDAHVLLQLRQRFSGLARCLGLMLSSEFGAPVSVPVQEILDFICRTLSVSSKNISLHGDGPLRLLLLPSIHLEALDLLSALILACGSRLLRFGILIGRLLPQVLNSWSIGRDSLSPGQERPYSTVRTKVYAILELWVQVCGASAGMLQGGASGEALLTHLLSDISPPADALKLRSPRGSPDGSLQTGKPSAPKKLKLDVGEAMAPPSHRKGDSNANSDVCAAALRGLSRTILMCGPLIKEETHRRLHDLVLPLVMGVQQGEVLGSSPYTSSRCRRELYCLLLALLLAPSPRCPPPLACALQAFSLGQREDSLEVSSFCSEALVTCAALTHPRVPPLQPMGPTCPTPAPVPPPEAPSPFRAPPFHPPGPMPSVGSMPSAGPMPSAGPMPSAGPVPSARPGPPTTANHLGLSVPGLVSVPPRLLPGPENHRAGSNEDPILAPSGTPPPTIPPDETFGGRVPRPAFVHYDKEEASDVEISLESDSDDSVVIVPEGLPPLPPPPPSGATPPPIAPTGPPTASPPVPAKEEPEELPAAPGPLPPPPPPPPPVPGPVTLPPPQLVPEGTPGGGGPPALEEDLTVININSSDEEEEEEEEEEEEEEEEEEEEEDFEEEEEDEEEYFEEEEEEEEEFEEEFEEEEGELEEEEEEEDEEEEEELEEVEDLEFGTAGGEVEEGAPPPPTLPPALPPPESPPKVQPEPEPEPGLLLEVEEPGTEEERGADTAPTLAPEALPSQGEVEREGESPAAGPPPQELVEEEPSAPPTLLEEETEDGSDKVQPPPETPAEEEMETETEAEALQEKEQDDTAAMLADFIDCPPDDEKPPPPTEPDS
PELP1 Rix1 domain (residues 1 to 642), C-terminal FLAG tag: residues 1-642 of Q8IZL8

Key:
[1] = target: SENP3 SUMO protease domain (residues 303 to 574), N-terminal FLAG tag (human) (UniProt Q9H4L4); test: co-IP; anti-FLAG M2 affinity gel; N-terminally FLAG-tagged SENP3 truncations as bait, exogenous rixosome co-transfected in HEK293FT; Western blot
[2] = target: PELP1 K826R (SUMOylation site lysine 826 to arginine) (human) (UniProt Q8IZL8); test: co-IP; anti-FLAG M2 affinity gel; FLAG-tagged PELP1 variants as bait, exogenous rixosome subunits co-transfected in HEK293FT; lysis in 50 mM Hepes pH 7.5, 200 mM NaCl, 5 mM MgCl2, 10% glycerol, 0.5% NP-40, 1 mM DTT, 4°C; SDS-PAGE and Western blot
[3] = target: T1, TEX10 CTE alone (C-terminal extension, residues 375 to 929), N-terminal GFP tag (human) (UniProt Q9NXF1); test: co-IP; anti-GFP nanobody Sepharose; N-terminally GFP-tagged TEX10 variants as bait, exogenous rixosome including LAS1L-NOL9 co-transfected in HEK293FT; Western blot
T1 sequence: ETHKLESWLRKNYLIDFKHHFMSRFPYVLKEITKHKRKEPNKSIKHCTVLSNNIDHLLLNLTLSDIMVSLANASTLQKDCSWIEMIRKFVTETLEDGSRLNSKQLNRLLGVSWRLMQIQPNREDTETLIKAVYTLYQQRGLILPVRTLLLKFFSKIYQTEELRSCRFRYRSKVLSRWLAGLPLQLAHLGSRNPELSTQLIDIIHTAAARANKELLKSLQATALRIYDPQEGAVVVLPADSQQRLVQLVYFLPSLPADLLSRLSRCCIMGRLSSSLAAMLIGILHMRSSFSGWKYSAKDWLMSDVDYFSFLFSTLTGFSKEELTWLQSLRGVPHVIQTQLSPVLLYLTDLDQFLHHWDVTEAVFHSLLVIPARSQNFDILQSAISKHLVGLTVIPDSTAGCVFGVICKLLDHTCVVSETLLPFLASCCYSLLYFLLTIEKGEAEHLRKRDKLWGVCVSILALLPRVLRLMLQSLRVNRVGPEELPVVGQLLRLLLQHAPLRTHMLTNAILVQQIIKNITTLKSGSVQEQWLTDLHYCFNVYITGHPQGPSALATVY

[4] = target: T2, TEX10, wild type, N-terminal GFP tag (human) (UniProt Q9NXF1); test: as above
T2 sequence: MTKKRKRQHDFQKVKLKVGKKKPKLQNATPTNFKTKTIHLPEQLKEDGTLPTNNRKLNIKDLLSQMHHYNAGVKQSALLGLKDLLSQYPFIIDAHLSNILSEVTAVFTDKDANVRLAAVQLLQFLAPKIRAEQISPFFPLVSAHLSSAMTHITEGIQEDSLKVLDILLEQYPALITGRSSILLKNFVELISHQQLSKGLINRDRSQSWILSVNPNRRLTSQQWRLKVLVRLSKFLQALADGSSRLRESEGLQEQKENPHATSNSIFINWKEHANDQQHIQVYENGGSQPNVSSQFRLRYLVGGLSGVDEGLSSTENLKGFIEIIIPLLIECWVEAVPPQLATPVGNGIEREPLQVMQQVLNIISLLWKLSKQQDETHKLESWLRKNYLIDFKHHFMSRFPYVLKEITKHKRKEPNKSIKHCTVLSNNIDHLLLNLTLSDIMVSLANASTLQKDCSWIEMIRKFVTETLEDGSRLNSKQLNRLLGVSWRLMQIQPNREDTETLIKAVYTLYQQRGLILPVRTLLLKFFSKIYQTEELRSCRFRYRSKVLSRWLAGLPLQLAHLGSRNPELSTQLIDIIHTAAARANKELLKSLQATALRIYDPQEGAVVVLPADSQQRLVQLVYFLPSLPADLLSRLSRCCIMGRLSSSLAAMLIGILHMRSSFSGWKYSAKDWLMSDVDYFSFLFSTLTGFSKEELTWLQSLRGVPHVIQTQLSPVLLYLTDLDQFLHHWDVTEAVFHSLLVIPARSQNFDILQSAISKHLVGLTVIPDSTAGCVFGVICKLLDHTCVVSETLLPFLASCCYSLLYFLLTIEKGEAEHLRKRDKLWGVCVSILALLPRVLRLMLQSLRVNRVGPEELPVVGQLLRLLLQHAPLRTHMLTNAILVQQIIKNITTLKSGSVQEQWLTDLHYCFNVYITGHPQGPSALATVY

[5] = target: PELP1, wild type, C-terminal FLAG tag (human), Q8IZL8; test: co-IP; anti-FLAG M2 affinity gel; FLAG-tagged PELP1 variants as bait, exogenous rixosome subunits co-transfected in HEK293FT; lysis in 50 mM Hepes pH 7.5, 200 mM NaCl, 5 mM MgCl2, 10% glycerol, 0.5% NP-40, 1 mM DTT, 4°C; SDS-PAGE and Western blot; conditions: remark: other sources report otherwise
[6] = target: PELP1 Rix1 domain (residues 1 to 642), C-terminal FLAG tag (human), Q8IZL8; test: as above; conditions: remark: other sources report otherwise

B1: LAS1L-NOL9 (RNase PNK), co-expressed rixosome module (complex, UniProt Q9Y4W2 1-734; Q5SY16 1-702)
chain 1: MSWESGAGPGLGSQGMDLVWSAWYGKCVKGKGSLPLSAHGIVVAWLSRAEWDQVTVYLFCDDHKLQRYALNRITVWRSRSGNELPLAVASTADLIRCKLLDVTGGLGTDELRLLYGMALVRFVNLISERKTKFAKVPLKCLAQEVNIPDWIVDLRHELTHKKMPHINDCRRGCYFVLDWLQKTYWCRQLENSLRETWELEEFREGIEEEDQEEDKNIVVDDITEQKPEPQDDGKSTESDVKADGDSKGSEEVDSHCKKALSHKELYERARELLVSYEEEQFTVLEKFRYLPKAIKAWNNPSPRVECVLAELKGVTCENREAVLDAFLDDGFLVPTFEQLAALQIEYEDGQTEVQRGEGTDPKSHKNVDLNDVLVPKPFSQFWQPLLRGLHSQNFTQALLERMLSELPALGISGIRPTYILRWTVELIVANTKTGRNARRFSAGQWEARRGWRLFNCSASLDWPRMVESCLGSPCWASPQLLRIIFKAMGQGLPDEEQEKLLRICSIYTQSGENSLVQEGSEASPIGKSPYTLDSLYWSVKPASSSFGSEAKAQQQEEQGSVNDVKEEEKEEKEVLPDQVEEEEENDDQEEEEEDEDDEDDEEEDRMEVGPFSTGQESPTAENARLLAQKRGALQGSAWQVSSEDVRWDTFPLGRMPGQTEDPAELMLENYDTMYLLDQPVLEQRLEPSTCKTDTLGLSCGVGSGNCSNSSSSNFEGLLWSQGQLHGLKTGLQLF
chain 2: MADSGLLLKRGSCRSTWLRVRKARPQLILSRRPRRRLGSLRWCGRRRLRWRLLQAQASGVDWREGARQVSRAAAARRPNTATPSPIPSPTPASEPESEPELESASSCHRPLLIPPVRPVGPGRALLLLPVEQGFTFSGICRVTCLYGQVQVFGFTISQGQPAQDIFSVYTHSCLSIHALHYSQPEKSKKELKREARNLLKSHLNLDDRRWSMQNFSPQCSIVLLEHLKTATVNFITSYPGSSYIFVQESPTPQIKPEYLALRSVGIRREKKRKGLQLTESTLSALEELVNVSCEEVDGCPVILVCGSQDVGKSTFNRYLINHLLNSLPCVDYLECDLGQTEFTPPGCISLLNITEPVLGPPFTHLRTPQKMVYYGKPSCKNNYENYIDIVKYVFSAYKRESPLIVNTMGWVSDQGLLLLIDLIRLLSPSHVVQFRSDHSKYMPDLTPQYVDDMDGLYTKSKTKMRNRRFRLAAFADALEFADEEKESPVEFTGHKLIGVYTDFAFRITPRNRESHNKILRDLSILSYLSQLQPPMPKPLSPLHSLTPYQVPFNAVALRITHSDVAPTHILYAVNASWVGLCKIQDDVRGYTNGPILLAQTPICDCLGFGICRGIDMEKRLYHILTPVPPEELRTVNCLLVGAIAIPHCVLKCQRGIEGTVPYVTTDYNFKLPGASEKIGAREPEEAHKEKPYRRPKFCRKMK
Q: With B1 as the binder, how does the binding [1] read?
A: binds

Q: What about the binding [2] of the same binder?
A: binds

Q: And the binding [3]?
A: binds

Q: What about the binding [4] of the same binder?
A: binds

B2: LAS1L-NOL9 (RNase PNK), co-expressed rixosome module, Q9Y4W2 1-734; Q5SY16 1-702 (complex)
chain 1: MSWESGAGPGLGSQGMDLVWSAWYGKCVKGKGSLPLSAHGIVVAWLSRAEWDQVTVYLFCDDHKLQRYALNRITVWRSRSGNELPLAVASTADLIRCKLLDVTGGLGTDELRLLYGMALVRFVNLISERKTKFAKVPLKCLAQEVNIPDWIVDLRHELTHKKMPHINDCRRGCYFVLDWLQKTYWCRQLENSLRETWELEEFREGIEEEDQEEDKNIVVDDITEQKPEPQDDGKSTESDVKADGDSKGSEEVDSHCKKALSHKELYERARELLVSYEEEQFTVLEKFRYLPKAIKAWNNPSPRVECVLAELKGVTCENREAVLDAFLDDGFLVPTFEQLAALQIEYEDGQTEVQRGEGTDPKSHKNVDLNDVLVPKPFSQFWQPLLRGLHSQNFTQALLERMLSELPALGISGIRPTYILRWTVELIVANTKTGRNARRFSAGQWEARRGWRLFNCSASLDWPRMVESCLGSPCWASPQLLRIIFKAMGQGLPDEEQEKLLRICSIYTQSGENSLVQEGSEASPIGKSPYTLDSLYWSVKPASSSFGSEAKAQQQEEQGSVNDVKEEEKEEKEVLPDQVEEEEENDDQEEEEEDEDDEDDEEEDRMEVGPFSTGQESPTAENARLLAQKRGALQGSAWQVSSEDVRWDTFPLGRMPGQTEDPAELMLENYDTMYLLDQPVLEQRLEPSTCKTDTLGLSCGVGSGNCSNSSSSNFEGLLWSQGQLHGLKTGLQLF
chain 2: MADSGLLLKRGSCRSTWLRVRKARPQLILSRRPRRRLGSLRWCGRRRLRWRLLQAQASGVDWREGARQVSRAAAARRPNTATPSPIPSPTPASEPESEPELESASSCHRPLLIPPVRPVGPGRALLLLPVEQGFTFSGICRVTCLYGQVQVFGFTISQGQPAQDIFSVYTHSCLSIHALHYSQPEKSKKELKREARNLLKSHLNLDDRRWSMQNFSPQCSIVLLEHLKTATVNFITSYPGSSYIFVQESPTPQIKPEYLALRSVGIRREKKRKGLQLTESTLSALEELVNVSCEEVDGCPVILVCGSQDVGKSTFNRYLINHLLNSLPCVDYLECDLGQTEFTPPGCISLLNITEPVLGPPFTHLRTPQKMVYYGKPSCKNNYENYIDIVKYVFSAYKRESPLIVNTMGWVSDQGLLLLIDLIRLLSPSHVVQFRSDHSKYMPDLTPQYVDDMDGLYTKSKTKMRNRRFRLAAFADALEFADEEKESPVEFTGHKLIGVYTDFAFRITPRNRESHNKILRDLSILSYLSQLQPPMPKPLSPLHSLTPYQVPFNAVALRITHSDVAPTHILYAVNASWVGLCKIQDDVRGYTNGPILLAQTPICDCLGFGICRGIDMEKRLYHILTPVPPEELRTVNCLLVGAIAIPHCVLKCQRGIEGTVPYVTTDYNFKLPGASEKIGAREPEEAHKEKPYRRPKFCRKMK
Q: With B2 as the binder, how does the binding [5] read?
A: binds

B3: TEX10, co-expressed rixosome subunit found with PELP1 or SENP3 baits, Q9NXF1 1-929 (protein)
chain: MTKKRKRQHDFQKVKLKVGKKKPKLQNATPTNFKTKTIHLPEQLKEDGTLPTNNRKLNIKDLLSQMHHYNAGVKQSALLGLKDLLSQYPFIIDAHLSNILSEVTAVFTDKDANVRLAAVQLLQFLAPKIRAEQISPFFPLVSAHLSSAMTHITEGIQEDSLKVLDILLEQYPALITGRSSILLKNFVELISHQQLSKGLINRDRSQSWILSVNPNRRLTSQQWRLKVLVRLSKFLQALADGSSRLRESEGLQEQKENPHATSNSIFINWKEHANDQQHIQVYENGGSQPNVSSQFRLRYLVGGLSGVDEGLSSTENLKGFIEIIIPLLIECWVEAVPPQLATPVGNGIEREPLQVMQQVLNIISLLWKLSKQQDETHKLESWLRKNYLIDFKHHFMSRFPYVLKEITKHKRKEPNKSIKHCTVLSNNIDHLLLNLTLSDIMVSLANASTLQKDCSWIEMIRKFVTETLEDGSRLNSKQLNRLLGVSWRLMQIQPNREDTETLIKAVYTLYQQRGLILPVRTLLLKFFSKIYQTEELRSCRFRYRSKVLSRWLAGLPLQLAHLGSRNPELSTQLIDIIHTAAARANKELLKSLQATALRIYDPQEGAVVVLPADSQQRLVQLVYFLPSLPADLLSRLSRCCIMGRLSSSLAAMLIGILHMRSSFSGWKYSAKDWLMSDVDYFSFLFSTLTGFSKEELTWLQSLRGVPHVIQTQLSPVLLYLTDLDQFLHHWDVTEAVFHSLLVIPARSQNFDILQSAISKHLVGLTVIPDSTAGCVFGVICKLLDHTCVVSETLLPFLASCCYSLLYFLLTIEKGEAEHLRKRDKLWGVCVSILALLPRVLRLMLQSLRVNRVGPEELPVVGQLLRLLLQHAPLRTHMLTNAILVQQIIKNITTLKSGSVQEQWLTDLHYCFNVYITGHPQGPSALATVY
Q: B3 was tested. Which binding [6] did it give?
A: binds
